Source: PubChem BioAssay AID686979 (National Center for Advancing Translational Sciences (NCATS), 2013)
In all, about 420,000 compounds went through this assay and about 50,000 (12%) were called active. This list was built around the results that the source calls inconclusive (neither active nor inactive); the mix of calls is not that of the screen. Calls come from the whole dose curve; as a rule, active = well fitted inhibition curve with a large enough effect; inconclusive = small, poorly fitted or top-dose-only effect; inactive = flat fitted curve, though single readings scatter. No potency is given beside an inconclusive call; the fits are too rough.
% is set by controls: 0 for no effect and ±100 for the full control effect; potency is the fitted concentration of half-maximal effect; tags give direction and shape of the fitted curve.

Assay: qHTS for Inhibitors of human tyrosyl-DNA phosphodiesterase 1 (TDP1): qHTS in cells in presence of CPT; note: nearly all actives have a fitted effect of over 55% in size
Settings: chicken DT40 Tdp1-/-;hTDP1 cells + 20 nM CPT, ATP luminescence, 48 h; activity change, negative = growth inhibition: at 46.2 µM (top of the series) unless noted
Procedure, shortened: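 Cell growth measured by CellTiter-Glo luminescence after a minimum 48 h, 37 C compound exposure with 20 nM CPT in Tdp1-knockout DT40 cells stably expressing hTDP1, seeded 400/well; qHTS titration format.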
With `CC(C)(C)C1CCC(=NNC(=O)c2ccco2)CC1` (stereo unspecified) the Potency was “inactive”. For `CC(=O)c1ccc(NC(=O)Cn2cc(S(=O)(=O)Cc3ccccc3Cl)c3ccccc32)cc1`, the Potency was “inactive”. For `N#Cc1ccc(C2=CC(=O)C[C@H](c3ccc4c(c3)OCO4)C2)cc1`, the Potency was “inactive”. For `CC1CN(C(=S)Nc2ccc(SC(F)F)cc2)CC(C)O1` (stereo unspecified), the Potency was “inactive”. In the case of `CC1Sc2ccc(S(=O)(=O)CCC(=O)Nc3ccccc3Cl)cc2NC1=O` (stereo unspecified), the Potency is reported as inconclusive [inhibitor, partial curve]. For `COc1ccccc1NS(=O)(=O)c1ccc(O)c(NC(=S)NCC2CCCO2)c1` (stereo unspecified), the Potency was inconclusive [inhibitor, full curve, poor fit]. With `Cc1cc(Cl)ccc1C(=O)C1CCCN(C(=O)/C=C/c2cnn(C)c2)C1` (stereo unspecified) the Potency was inconclusive [inhibitor, single point]. With `Cc1ccc2nc(-c3cccc(Cl)c3)c(Cc3ccccc3)n2c1` the Potency was active: 20.6 µM. With `CC(C)CNc1nc(=S)nc(N(C)C)[nH]1` the Potency was inconclusive [inhibitor, single point]. In the case of `COc1ccc(C2=NN(CN3C(=O)C(=O)c4ccccc43)C(c3cccc([N+](=O)[O-])c3)C2)cc1` (stereo unspecified), the Potency is reported as inconclusive [inhibitor, single point]. In the case of `COCCN(Cc1cccs1)S(=O)(=O)c1ccc(-c2ccc(=O)[nH]n2)s1`, the Potency is reported as “inactive”. For `O=C(Cc1cc(=O)oc2cc(O)ccc12)NC(Cc1ccc(Cl)cc1)C(=O)O` (stereo unspecified), the Potency was “inactive”. In the case of `O=C(COc1ccccc1[N+](=O)[O-])Nc1cccc(-c2nc3ccccc3s2)c1`, the Potency is reported as inconclusive [inhibitor, single point]. For `Cc1ccc(-c2nn(-c3cccc(F)c3)cc2CNCCc2ccncc2)o1`, the Potency was inconclusive [inhibitor, single point]. In the case of `Cn1c(=O)c2c(nc(Oc3ccccc3)n2Cc2c(Cl)cccc2Cl)n(C)c1=O`, the Potency is reported as “inactive”. In the case of `CSc1nnc(CNC(=O)/C=C/c2ccccc2Cl)n1-c1ccc(F)cc1`, the Potency is reported as inconclusive [inhibitor, single point]. For `CC1CCCN(C(=O)CN2C(=O)NC(C)(c3ccc4ccccc4c3)C2=O)C1` (stereo unspecified), the Potency was inconclusive [inhibitor, single point]. For `CC(C)[C@H](NC(=O)OCc1ccccc1)C(=O)OCC(=O)Nc1ccc(N2CCOCC2)cc1`, the Potency was inconclusive [inhibitor, partial curve]. With `NCCCC(=O)N1c2ccccc2Sc2ccccc21` the Potency was inconclusive [inhibitor, single point]. For `Cc1ccn2c(NC(=O)c3ccco3)c(-c3ccccc3)nc2c1`, the Potency was “inactive”. In the case of `Cc1ccc2c(c1)c1c3n2CCN(C(=O)CCl)C3CCC1` (stereo unspecified), the Potency is reported as active: 4.61 µM. With `Cc1cccc(NC(c2ccc(O)cc2)c2ccc3ccc(C)nc3c2O)n1` (stereo unspecified) the Potency was active: 23.1 µM. For `O=C(CN1CCN(C(=O)c2ccco2)CC1)Nc1ccccc1-c1ccccc1`, the Potency was active: 25.9 µM. In the case of `CC(C)[C@@H]1N[C@]2(C(=O)Nc3ccccc32)[C@@H]2C(=O)N(c3cccc(C(F)(F)F)c3)C(=O)[C@@H]21`, the activity change, negative = growth inhibition is reported as inconclusive: -30.3% [inhibitor]. For `CCOc1ccc(NC(=O)CN2C(=O)COc3ccc(S(=O)(=O)NC4CCCC4)cc32)cc1`, the Potency was inconclusive [inhibitor, single point]. With `NC(=O)c1ccc(=O)n(C2OC(CO)C(O)C2O)c1` (stereo unspecified) the Potency was inconclusive [inhibitor, single point]. In the case of `Cc1cc(C)c2oc(C(=O)NC3CCS(=O)(=O)C3)cc(=O)c2c1` (stereo unspecified), the Potency is reported as “inactive”. With `COc1ccc(-c2noc(CCC(=O)Nc3cc(Cl)c(OC)cc3OC)n2)cc1` the Potency was inconclusive [inhibitor, single point]. With `COc1cc(NC(=O)CSc2nc3nc(C)c(Cc4ccc(C)cc4)c(C)n3n2)cc(OC)c1OC` the Potency was active: 13 µM. In the case of `CCOc1ccc(Nc2nc3cc(S(=O)(=O)N(CC)CC)ccc3o2)cc1`, the Potency is reported as active: 5.8 µM. For `COc1cccc(C2C3=C(N=C4SCC(=O)N42)c2ccccc2CC3)c1OC` (stereo unspecified), the Potency was active: 23.1 µM. For `CCO[C@H]1OC(C(=O)N2CCN(Cc3ccc4c(c3)OCO4)CC2)=C[C@@H](c2csc3ccccc23)[C@@H]1CCCO`, the Potency was inconclusive [inhibitor, single point]. With `CCCCN(C)CCNC(=S)Nc1ccc2nc(N3CCN(CC)CC3)cc(C)c2c1` the Potency was inconclusive [inhibitor, partial curve, poor fit]. For `C(#Cc1ccccc1)CN1CCCCC1`, the Potency was “inactive”. With `COc1cccc(N2C(=O)C3C(C2=O)C2C=CC3C23CC3)c1` (stereo unspecified) the Potency was “inactive”. For `CC(C)[C@H](NS(=O)(=O)c1cccc(Cl)c1)C(=O)OCC(=O)N1CCN(c2ccccc2)CC1`, the Potency was active: 23.1 µM. For `COc1cc(/C=C/C(C)=NNc2ccccc2)ccc1O`, the Potency was active: 3.66 µM. In the case of `CSc1ccc(S(=O)(=O)NCC(=O)OCC(=O)N2CCCC2=O)cc1[N+](=O)[O-]`, the Potency is reported as inconclusive [inhibitor, single point]. For `CCCCCc1c(-c2cccc(OC)c2)ncn1CCc1ccccc1OC`, the Potency was active: 8.2 µM. With `CN(Cc1c(F)cccc1Cl)C(=O)c1cccc(S(=O)(=O)NCc2ccccc2)c1` the Potency was active: 23.1 µM. With `CC(=O)c1ccc(NC(=O)c2ccc(-n3cncn3)c([N+](=O)[O-])c2)cc1` the Potency was inconclusive [inhibitor, single point]. In the case of `CNC(=O)NC(=O)COC(=O)/C=C/c1cccc(Br)c1`, the Potency is reported as “inactive”. For `CCOc1ccc(NC(=O)N2CCC(c3nc4ccccc4o3)CC2)cc1`, the Potency was inconclusive [inhibitor, single point]. For `O=C(CN1C(=O)NC2(CCc3ccccc32)C1=O)Nc1ccc(Br)cc1F` (stereo unspecified), the activity change, negative = growth inhibition was inconclusive: -31.1% [inhibitor]. For `CCOc1ccc2nc(N3CCCC(C(=O)NC4CCCC4)C3)sc2c1` (stereo unspecified), the Potency was inconclusive [inhibitor, single point]. With `Cc1[nH]c2ccccc2c1SCCN` the Potency was inconclusive [inhibitor, single point].
